From the RNAGym collection of RNA variant scans (doi:10.1093/nar/gkz1192) come the findings set out here.

The chains are these.
B1: CPEB3 Ribozyme (parent)
chain: UAACAGGGGGCCACAGCAGAAGCGUUCACGUCGCAGCCCCUGUCAGAUUCUGGUGAAUCUGCGAAUUCUGCUGUAUAUCUC

Read counts are not given, so values of variants with three or more changes are uncertain.

The variants in this data set derive from B1. Briefly: self-cleavage, relative activity (ratio to wild type); higher = more cleavage; in vitro, sequencing. The gist of the method: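 For each CPEB3 ribozyme variant, relative activity is its cleaved/total read fraction divided by the unmutated ribozyme's. Barcoded error-prone PCR libraries were transcribed by T7 RNA polymerase (5 hours, 37°C) and held in DNase I for 15 min before an EDTA stop, with cleavage occurring throughout. Template-switching reverse transcription and Illumina sequencing were used to read the RNAs. A 5-read minimum applied, and results are the mean of three batches.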
With UAACAGGGGGCCACAGCAGAAGCGUUCAUGUCGCUGCCCCUGUCAGAUUCUGGUGUAUCUGCGAAUUCUGCUGUAUAUCUC [C29U A35U A56U], the self-cleavage came out at 0.22.
Take UAACAGGGGGCCACAGCAGAAGCGUUCAUGUCGCUGCCCCUGUCGGAUUCUGGUGAAUCUGUGAAUUCCGCUGUAUAUCUC [C29U A35U A45G C62U U69C]: the self-cleavage turned out to be 0.07.
With UAACAGGGGGCCACAGCAGAAGCGUUCAGGUCGCAGCCCAUGCCAGAUUCUGGUGAAUCUGCGAAUUCUGCUGUAUAUCUC [C29G C40A U43C], the self-cleavage was found to be 0.27.
On to UAACAGGGGGCCACAGCAGAAGCGUUCUCGACGCAGCCCCUGUCAGAAUCUGGUGAAUCUGCGAAUUCUGCUGUAGAUCUC [A28U U31A U48A U76G], for which the self-cleavage turned out to be 0.09.
The value for UAACAGGGGGCCACAGCAGAAGCGUUCAUGUCGCUGCCCCUGCCAGAUUCUUGUGAGUCUGCGAAUUCAGCUGUAUAUCUC [C29U A35U U43C G52U A57G U69A] was 0.09.
UAACAGGGGGCCACAGCAGAAGCGUUCUCGUCGCAGCCCCCGUCAGAUUCUGGUGAAUCUGCGAGUUCUGCUGUAUAUCUC [A28U U41C A65G]: the self-cleavage was found to be 0.31.
Consider UAACAGGGGGCCACAGCAGAAGCGUUCUCGUCGCAGCCCCUGUCAUAUUCUGGCGAAUCUGCGAAUUCUGCUGUAUAUCUC [A28U G46U U54C], for which the self-cleavage is 0.21.
On to UAACAGGGGGCCACAGCAGAAGCGUUCAUGUCGCGGCCCCUGUCAGUUUCUGGUGAAUCUGCGAAUUCUGCUGAAUAUCUC [C29U A35G A47U U74A], for which the self-cleavage is 1.03.
The value for UAACAGGGGGCCACAGCAGAAGCGUUCUCGUCGCAGCCCCUGCCUGAUUCUGGUGAAUCUGCGAAUUCUGCAGUAUAUCUC [A28U U43C A45U U72A] was 0.37.
Turning to UAACAGGGGGCCACAGCAGAAGCGUUCAGGCCGCAGCCCCUGUCGGAUUCUGGUGAAUCUGCGAAUUCUGCCGUAUAUCUC [C29G U31C A45G U72C], the self-cleavage came to 0.07.
Take UAACAGGGGGCCACAGCAGAAGCGUUCUCGUCGCAGCCCCAGUCAGAUUCUGGUGGAUCUGCGAGUUCUGCUGUAUAUCUC [A28U U41A A56G A65G]: the self-cleavage is 0.13.
Turning to UAACAGGGGGCCACAGCAGAAGCGUUCUCGCCGCAGCCCCUGUCAGAUUCUGGUGAGUCUGCGAAUUCUGCUGUAUAUCUC [A28U U31C A57G], the self-cleavage turned out to be 0.31.
For the variant UAACAGGGGGCCACAGCAGAAGCGUUCAUGUCGCUGCCCCUGUCAGAUUCUGGUGAAUCCGCGAAUUCUGCUGUAUAUCUC [C29U A35U U60C], the self-cleavage amounted to 0.08.
UAACAGGGGGCCACAGCAGAAGCGUUCUCGUCGCAGCCCCUGUCAGAUUCUGGUGAAUCUGCGAAUUCUACUGUAUACCUC [A28U G70A U78C]: the self-cleavage amounted to 0.5.
In the case of UAACAGGGGGCCACAGCAGAAGCGUUCAAGUCGCAGCCCCUGUCAGAUUCUGGUGAAUCUGCGGAUUCAGCUGUAUAUCCC [C29A A64G U69A U80C], the self-cleavage was found to be 0.11.
UAACAGGGGGCCACAGCAGAAGCGUUCUCGUCGCAGCCCCCGUCAGUUUCUGGUGAAUCCACGAAUUCUGCUGUAUUUCUC [A28U U41C A47U U60C G61A A77U]: the self-cleavage is 0.1.
As for UAACAGGGGGCCACAGCAGAAGCGUUCUCGUCGCAGCCCCUGUCAGAUUCUGGUGAAUCUGCGAAUUCUGCUGUAAACCUC [A28U U76A U78C], the self-cleavage stood at 0.71.
UAACAGGGGGCCACAGCAGAAGCGUUCUCGUCGCAGCCCCAGUCAGAUUCUGGUGAAUCUGCGAAUUCUGCUGUAAAUCUC [A28U U41A U76A]: the self-cleavage was 0.09.
On to UAACAGGGGGCCACAGCAGAAGCGUUCUCGUCGCAGCCCCUGUCAGAUUCUGGAGAAUCUGCGAAUUCUGCUGUAUACCUC [A28U U54A U78C], for which the self-cleavage amounted to 0.79.
As to UAACAGGGGGCCACAGCAGAAGCGUUCUCGCCCCAGCCCCUGUCAGAUUCUGGUGAAUCUGCGUAUUCUGCUGUAUAUCUC [A28U U31C G33C A64U], the self-cleavage came out at 0.18.
For the variant UAACAGGGGGCCACAGCAGAAGCGUUCAAGUCGCAGCCCCAGUCAGAUUCUGAUGAAUCUGCGAAUUCUGCUGUAUACCUC [C29A U41A G53A U78C], the self-cleavage was found to be 0.13.
As for UAACAGGGGGCCACAGCAGAAGCGUUCUCGUCGCAGCCCCUGCCAGAUUCUGGUGAAUCUGCGAAUUCUGCUGUAUGUCUC [A28U U43C A77G], the self-cleavage was 0.32.
Under UAACAGGGGGCCACAGCAGAAGCGUUCAGGACGCAGCCCUAGUCAGGUUCUGGUGAACCUGCGAAUUCUGCCGUAUAUCUC [C29G U31A C40U U41A A47G U58C U72C] stands 0.07.
The value for UAACAGGGGGCCACAGCAGAAGCGUUCUCGUCGCAGCCCCUGUCAGAUUCCGGUGAAUCUGCGAAUUCUGCUGUACAUCUC [A28U U51C U76C] was 0.83; that for UAACAGGGGGCCACAGCAGAAGCGUUCUCGUCGCAGCCCCUGUCAGAUUCUGGUGAAUCUGCGAAUUCUGCUGUACAUCCC [A28U U76C U80C] was 1.11; that for UAACAGGGGGCCACAGCAGAAGCGUUCUCGUCGCAGCCCCUGCCAGAUUCUGAUGAAUCUGCGAAUUCCGCUGUAUAUCUC [A28U U43C G53A U69C] was 0.13.
As for UAACAGGGGGCCACAGCAGAAGCGUUCAGGCCGCAGCCCCUGUCAGAUUCUGGUGAAUCUGCGGAUUCAGCUGUAUAUCUC [C29G U31C A64G U69A], the self-cleavage turned out to be 0.05.
Consider UAACAGGGGGCCACAGCAGAAGCGUUCAAGUCGCGGCUCCUGUCAGAUUCUGGUGAAUCAGCGAAUUCUGCUGUAUAUCUC [C29A A35G C38U U60A], for which the self-cleavage was determined as 0.64.
The value for UAACAGGGGGCCACAGCAGAAGCGUUCUCGUCGCAGCCCCUGUCAGAUUCGGGCGAAUCUGCGAAUUAUGCUGUAUAUCUC [A28U U51G U54C C68A] was 0.16; that for UAACAGGGGGCCACAGCAGAAGCGUUCAGGUCGCAGCCCCUGUCUGACUCUGGUGAAUCUGCGAAUUCAGCUGUAUAUCUC [C29G A45U U48C U69A] was 0.06.
With UAACAGGGGGCCACAGCAGAAGCGUUCUCGUCGCAGCCCCUGUCAGAUUCUGGUGAAUCUGCGAACUCCGCUGUAUACCUC [A28U U66C U69C U78C], the self-cleavage is 0.17.
In the case of UAACAGGGGGCCACAGCAGAAGCGUUCAAGCCGCAGCCCCUGUCAGAUUCUGGUGAAUCUGCGAAUCCUGCUGUAUAUCUC [C29A U31C U67C], the self-cleavage was found to be 0.09.
Regarding UAACAGGGGGCCACAGCAGAAGCGUUCUCGUCGCAGCCCCUGACAGAUUCUGGUGAAUCUGCGAAUUCUGCAGUAUAUCUC [A28U U43A U72A], the self-cleavage came out at 0.64.
Consider UAACAGGGGGCCACAGCAGAAGCGUUCUCGUCGCAGCCCCUGUCAGAUUCUGGUGAAUCCGCGGAUUCUGCUGUAUAUCUC [A28U U60C A64G], for which the self-cleavage worked out at 0.24.
